Experimental data as given in the RNAGym collection of RNA variant scans (doi:10.1073/pnas.2313332121).
Variants at the background level are over-represented here.

B1: TPR 5TU (parent)
chain: GGAUCUUCUCGAUCUAACAAAAAAGACAAAUCUGCCACAAAGCUUGAGAGCAUCUUCGGAUGCAGAGGCGGCAGCCUUCGGUGGCGCGAUAGCGCCAACGUUCUCAACUAUGACACGCAAAACGCGUGCUCCGUUGAAUGGAGUUUAUCAUG

Variants of: B1
Test: polymerase ribozyme fitness, log enrichment relative to wild type (log ratio); higher = more active; in vitro selection for triplet polymerase activity
In short: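 One round of in vitro selection, in triplicate, was applied to PCR-built, transcribed mutant libraries of each subunit of a heterodimeric triplet polymerase ribozyme. The steps were annealing with a biotinylated primer, partner subunit and triplets, incubation frozen at −7 °C, gel excision of extended constructs, streptavidin-bead capture and RT-PCR. Fitness is the logarithm, base 2, of genotype enrichment over wild-type enrichment from inverse-variance-weighted replicate averages of Illumina-sequenced inputs and outputs, keeping genotypes with ≥10 input reads and ≥1 read per output.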

Row | Variant | polymerase ribozyme fitness (log ratio)
1 | A19U A24U C32U C76A G141C | ≤ -4.2
2 | C18G A21U A28U A41C G141C | ≤ -4.2
3 | C18A A19G C54G G58A G62A G83A C87A A107G G133A | ≤ -4.2
4 | A19C A21U U55A C96G G133A A137U U146G | ≤ -4.2
5 | C18U A21U A60G U77C A107U G126A | ≤ -4.2
6 | A19G A26C A49C C51G C79A G83A C149A | ≤ -4.2
7 | A17U C35A C69G U78G G84A A91G C103A | ≤ -4.2
8 | C18U G42C A73G A91U U146G A147U | ≤ -4.2
9 | A17U U146C | -0.884
10 | C18U A30G C51A C57A C76U C103G A120U | ≤ -4.2
11 | C18G U33C A91C | ≤ -4.2
12 | A19C C27G G70A C76U G94U C103U A120U C129A U148C | ≤ -4.2
13 | A17U C18U C96G C125U | -1.1
14 | A17U C57G C69A | -2.58
15 | C18G A37C C96G A106G | -1.07
16 | A19C A66C G94A U134G | ≤ -4.2
17 | A17U G67C A91C C95U G100U A106U | ≤ -4.2
18 | C18G A30U C32A G83U U139G G141U U144A | ≤ -4.2
19 | A17U A29C U31A U127G | ≤ -4.2
20 | C18G G25U A66G G71A C118A | ≤ -4.2
21 | A17U C85A C96G | -2.34

Row | Variant | polymerase ribozyme fitness (log ratio)
22 | C18A C79G C85G U102G C149A | ≤ -4.2
23 | A19U A23C C27A C85A | ≤ -4.2
24 | A19C G48C G50A C85U C118G G136U | ≤ -4.2
25 | A17U A52C A64C G133A A138C | ≤ -4.2
26 | A17U A26U U45A A64G C85G A138G G143U | ≤ -4.2
27 | C18G U56A A73U G83C | -3.86
28 | A19C A26G A30C U53G C96G U139A | ≤ -4.2
29 | A19U A26C C79A C85U A122G | ≤ -4.2
30 | A17U A39G C57G G68U G83U A150G | ≤ -4.2
31 | C18U C43G U44G G67U G81C G84A C96A G141U U144A U151C | ≤ -4.2
32 | A19U A26U G46A C87A A91U G94A U127C G143C | ≤ -4.2
33 | A19C G50A C51A C87A U111C | ≤ -4.2
34 | C18A C93G A97G G140C A147U C149G | ≤ -4.2
35 | A19G A40C C79A G83A G141U C149G | ≤ -4.2
36 | C18U G83C | -1.3
37 | C18A C87U G88C A89G G124C G126A | ≤ -4.2
38 | C18A G92A A120G A121C U148C | ≤ -4.2
39 | A19G U44A U55A G62C C93U | ≤ -4.2
40 | A19C C103A A110U U134A | ≤ -4.2
41 | A19U A20U C85U A142G | -2.89
42 | A19G U55A U104G C114G C125A G140U | ≤ -4.2

Row | Variant | polymerase ribozyme fitness (log ratio)
43 | A19U A28G A41U C43A G59U C87A A110U C131G | ≤ -4.2
44 | C18G A60C U90G G92C C96A | ≤ -4.2
45 | A19C A21C A24C C75A C123G | ≤ -4.2
46 | A19G G126C | 0.693
47 | A19G A20G C51G A60G A73G C87A A97U C99G C132A | ≤ -4.2
48 | C18G A24U C76A C95U G141A | -3.98
49 | A19G C57G G58U G62C C87U G88C A142C | ≤ -4.2
50 | C18A C32U A37U A39U C85A C87U A150U G152U | ≤ -4.2
51 | A17U U44A C54G U55G G62C C87A C99U A150G G152C | ≤ -4.2
52 | C18G U53A G88U U90A G92C C93G A97G G126A C129G | ≤ -4.2
53 | A19C C129G U148G | ≤ -4.2
54 | C18G A20U A29G U56A G65C C93A | ≤ -4.2
55 | A19U A21C C35G A41U A52C C87A C114U C118U | ≤ -4.2
56 | C18U C51U C96A G126C C132U | -2.04
57 | A19C G48C U61A C79U C96U | ≤ -4.2
58 | A19C C51A C75A C93A G117C | ≤ -4.2
59 | A19G C32A A40C U61A C93G A110G | ≤ -4.2
60 | A17U A39G C99G A110C C125U A138C | ≤ -4.2
61 | C18G C51A C76G | ≤ -4.2
62 | C18U C32G A41C G94A | ≤ -4.2
63 | C18U U33A C87G U101G G124A C132G | ≤ -4.2

Row | Variant | polymerase ribozyme fitness (log ratio)
64 | A19C A39C G65A A91U C125G | ≤ -4.2
65 | A17U C38U C57U U78C G80U C87A U90C C116G U146C | ≤ -4.2
66 | A17U A29G G50C G83U | ≤ -4.2
67 | A17U U31G U55A U82A C87G C95U U104C C114A U144A | ≤ -4.2
68 | A19C A26C | -1.76
69 | A19C C38U C96U A142U | -0.812
70 | A17U C54A U90G C96A C118G | ≤ -4.2
71 | C18U A26U C75G G83A A122U G143A | -3.81
72 | C18U G70A G92U A121G G133A | ≤ -4.2
73 | A19C U53A G71C G92C U148A | ≤ -4.2
74 | C18A A28C A29U U55G A66U G68C A91G C118U U135A | ≤ -4.2
75 | C18G A20C G34U U55G C118U C123U | -4.18
76 | A17U A40U A47G U78C A89C U134A | ≤ -4.2
77 | A19G A49G A64G A73U C125A C131G U151C | ≤ -4.2
78 | A17U A26U C75U C76G A91U | ≤ -4.2
79 | A19C A39U A41C G88U C125G G140U U145C | ≤ -4.2
80 | A17U C85A A107G G128U U134A | ≤ -4.2
81 | C18G G94A | -1.09
82 | A17U A30G G42U G81C C85U A122U | ≤ -4.2
83 | A17U C96A G140C A142G | ≤ -4.2
84 | C18U A30U G46A A73G C96G A142C A150G | ≤ -4.2
